Among the data in article PMC7819943, “Rice protein-binding microarrays: a tool to detect cis-acting elements near promoter regions in rice” are binding signal values, retold here.

The list shows a part of the results.

The target in this assay is T1, OsWOX13 (Oryza sativa, UniProt Q5QMM3 1-267).
T1 sequence: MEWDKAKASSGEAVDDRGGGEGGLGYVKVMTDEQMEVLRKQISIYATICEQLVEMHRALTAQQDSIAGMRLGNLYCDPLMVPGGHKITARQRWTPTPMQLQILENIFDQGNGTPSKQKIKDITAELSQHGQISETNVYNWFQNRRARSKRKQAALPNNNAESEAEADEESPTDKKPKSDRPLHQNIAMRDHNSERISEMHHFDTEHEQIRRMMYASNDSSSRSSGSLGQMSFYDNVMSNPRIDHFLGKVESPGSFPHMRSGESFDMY
The assay is described as follows: protein-binding microarray (RPBM); PBS, 2% BSA, 51.3 ng/ul salmon testes DNA, 50 uM zinc acetate, 200 nM TF, 25 C, 1 h; high values mean tight binding. The conditions noted are these: protein: recombinant; tags: N-terminal polyhistidine and DsRed monomer fusion (pET32a); label: CyDye5-dUTP incorporated in the synthesized complementary strand; 3' TTTTT single-stranded linker to array surface; dsDNA, one strand shown. The method in brief:
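Polyhistidine-tagged DsRed fusions of transcription factors, joined at the N-terminus, were expressed in E. coli BL21-CodonPlus and isolated on Ni–NTA. They were incubated at 200 nM for 1 h at 25 °C on a custom Agilent array, double-stranded and BSA-blocked, in PBS with 2% BSA, salmon testes DNA and 50 µM zinc acetate. The binding signal is per-feature fluorescence intensity (arbitrary units) read on an Axon 4000B scanner after washing.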
With “ATTTGATTTAAAACCTCAGTTTTCGATTGAGAGAAAATATCGGAGTCACCTAGTGCAG”, the binding signal is 4350 fluorescence intensity (a.u.).

Regarding “CTTCACTTCTATCACACAGTTGACAGAATTCAGAGCCTTCCGGAGTCACCTAGTGCAG”, the binding signal is 8270 fluorescence intensity (a.u.). Then “CTTAAACAGATGGAGCAGAAGAAGAAAACGGATGCTAGAACGGAGTCACCTAGTGCAG”, with 5680 fluorescence intensity (a.u.); and “AAATCTGATTAACCTGCCTTTCACACCACACGTGAATTAGCGGAGTCACCTAGTGCAG”, with 9750 fluorescence intensity (a.u.); and “TCGGTCTTTCAACTCACATCAATTAGCTTAAGTTTCCATTCGGAGTCACCTAGTGCAG”, with 3210 fluorescence intensity (a.u.). “CCAAACAAATTTAATCAAAAGCCAGCATGATGCAGTTAATCGGAGTCACCTAGTGCAG”: the binding signal was 6400 fluorescence intensity (a.u.). Then “GGAGTAGTGATTAGTGGGTGGTGATGGGCACCACTAGTCACGGAGTCACCTAGTGCAG”, with 11200 fluorescence intensity (a.u.); and “CAAATCATGACGCAATTAAGTTTAAAAGATTTGTCTCATACGGAGTCACCTAGTGCAG”, with 16700 fluorescence intensity (a.u.); and “TTTATGATTAGTATTATTATTATTATTATTATATGATAAACGGAGTCACCTAGTGCAG”, with 23400 fluorescence intensity (a.u.). Then “GAGGCAGTAATTAACATCCATTGGAAGAGCATATAATGGGCGGAGTCACCTAGTGCAG”, with 6900 fluorescence intensity (a.u.). Then “ACGTGATGAGCAGCCTGGTGGACTTCTATGGAAAATGCGGCGGAGTCACCTAGTGCAG”, with 7520 fluorescence intensity (a.u.); and “GTCTTGATGGATCGGTCAGGATCGTCTCGCTTAGATCCAACGGAGTCACCTAGTGCAG”, with 5260 fluorescence intensity (a.u.); and “ATAATTTCTCTATGGTTTCTAAGAGATAGATAGAATATATCGGAGTCACCTAGTGCAG”, with 8940 fluorescence intensity (a.u.). Consider “GAATTAGTTGATTTGGACATAGGAATATACTCCTATTTCTCGGAGTCACCTAGTGCAG”, for which the binding signal was 4710 fluorescence intensity (a.u.). Then “TTAATTAATTATAGAAACAGTCTCTCTGGAAATGGTTCAACGGAGTCACCTAGTGCAG”, with 41700 fluorescence intensity (a.u.). Then “TCTTTAAATTATGATTATTGTGCGAACGATTTTGCTATATCGGAGTCACCTAGTGCAG”, with 20500 fluorescence intensity (a.u.). Then “TCCCAATTACCTGCCCCTACCCAAGTATTGAAAAGGAGGGCGGAGTCACCTAGTGCAG”, with 4310 fluorescence intensity (a.u.); and “TACCTAATTTCATATATCTAATTGCTTTGTGATGCTCAATCGGAGTCACCTAGTGCAG”, with 15700 fluorescence intensity (a.u.); and “TTATCTAAATCTACCTAATTAGTCGTAAATATGAGCACACCGGAGTCACCTAGTGCAG”, with 8440 fluorescence intensity (a.u.).

For “TTTGATGAGTGAGAGCCCTCAGGGCCGATTTATATATGGGCGGAGTCACCTAGTGCAG”, the binding signal was 8560 fluorescence intensity (a.u.). Then “CTATTTCTCAAATGATTGATGTGGATAATCCATGGCTTCACGGAGTCACCTAGTGCAG”, with 18100 fluorescence intensity (a.u.).

Consider “ATATATATATATATATATATATATATATATACAGTTCACACGGAGTCACCTAGTGCAG”, for which the binding signal is 25700 fluorescence intensity (a.u.). Then “GTTTAGACTTATAATAAACTAATTAAAACGATAAGTAAGTCGGAGTCACCTAGTGCAG”, with 4810 fluorescence intensity (a.u.).

“AAATTAACAGCGTTAAATATTTAGGAGCGGAGGGAGTATTCGGAGTCACCTAGTGCAG”: the binding signal is 4020 fluorescence intensity (a.u.). For the sequence “CTCATTGACATTTTCAGTTGGTAATCAGTACACTTGTTCCCGGAGTCACCTAGTGCAG”, the binding signal was 6440 fluorescence intensity (a.u.).

For “CCTTGATGACACGAATAGCTATGGCATATCCTTGGTATTCCGGAGTCACCTAGTGCAG”, the binding signal was 4660 fluorescence intensity (a.u.).

With “TTCAGTATGTGTGATTGGCTGAGCTTGGATTTAGTACTAGCGGAGTCACCTAGTGCAG”, the binding signal is 19800 fluorescence intensity (a.u.). Then “TAAGATTGATTGATTCGAAACGATCCTCCAAAATACTGTACGGAGTCACCTAGTGCAG”, with 19500 fluorescence intensity (a.u.); and “GATTATGATTTGGAGAAAATTGCATCCATAAAACATTAATCGGAGTCACCTAGTGCAG”, with 8000 fluorescence intensity (a.u.); and “CCGCGTACGCGATTGACGACTATACATTTTACGGGCTCACCGGAGTCACCTAGTGCAG”, with 5470 fluorescence intensity (a.u.). Then “ACTAGTTAAACTAATTTAAATTTTATGTCTAATAAAGTAGCGGAGTCACCTAGTGCAG”, with 20500 fluorescence intensity (a.u.); and “ATATAAATTGACTATTAAATATATTGACTATATGTAAATTCGGAGTCACCTAGTGCAG”, with 25600 fluorescence intensity (a.u.).

In the case of “TCCGCGTGATTTCCCTCTCCGTGGCGGTGTTTTGGTCGGGCGGAGTCACCTAGTGCAG”, the binding signal is 7120 fluorescence intensity (a.u.). Then “TTAACAATTGAAAGATCATCTCATTGGTTAATTTATTTGGCGGAGTCACCTAGTGCAG”, with 6220 fluorescence intensity (a.u.); and “ATAATAATTAAGTAAACATTATTAGAAAATAGCACAACCTCGGAGTCACCTAGTGCAG”, with 8720 fluorescence intensity (a.u.). Then “ATTAACGATACTTTTACTGATTACTGAAGCGGTTAACGACCGGAGTCACCTAGTGCAG”, with 3930 fluorescence intensity (a.u.); and “TGGTAATACGTAATCTAGATTTGAGATTATGTAGAACATTCGGAGTCACCTAGTGCAG”, with 5170 fluorescence intensity (a.u.); and “ATAAATTATCCCACCAAAATTCGACTGAATTCGATAAGTTCGGAGTCACCTAGTGCAG”, with 4770 fluorescence intensity (a.u.). Then “TCACCTAACTCTAGTATAATTATCAATTTATCAGGCATACCGGAGTCACCTAGTGCAG”, with 11200 fluorescence intensity (a.u.); and “GAATTAATTGAGTTTCAGTTATAGATATATAGCTGGCTGACGGAGTCACCTAGTGCAG”, with 35300 fluorescence intensity (a.u.); and “ATATATCAAATTTTGCAAAATTATAATGGCATGGTTGTAACGGAGTCACCTAGTGCAG”, with 5580 fluorescence intensity (a.u.).

Regarding “TTGAAATTTGAGAAAATTTGCTCAAATTCACCAAGGTCTACGGAGTCACCTAGTGCAG”, the binding signal was 7750 fluorescence intensity (a.u.).
